Where “and” joins values, the source holds several entries; their conditions need not be identical. Identical values can stand only once.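 Exposure lasted 48 hours, with cells grown in 96-well plates and compounds tested at five concentrations. Here, GI50 denotes the concentration required for 50% inhibition of growth. TGI: concentration producing complete growth inhibition.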 Calls of active or inactive are those of the source. No stated cut-off is given here; in the data, active means GI50 below about 0.43 µM; inactive means the rest.
How the values were obtained:
Assay in all cases: NCI tumour cell line growth inhibition, 48 h
CAKI-1 renal = tested on: CAKI-1 renal
A549 NSCLC = tested on: A549 NSCLC
MCF7 breast = tested on: MCF7 breast
SNB-78 CNS = tested on: SNB-78 CNS
HCC-2998 colon = tested on: HCC-2998 colon
U251 CNS = tested on: U251 CNS
UACC-257 melanoma = tested on: UACC-257 melanoma
SK-OV-3 ovarian = tested on: SK-OV-3 ovarian
HOP-92 NSCLC = tested on: HOP-92 NSCLC
OVCAR-3 ovarian = tested on: OVCAR-3 ovarian
SK-MEL-5 melanoma = tested on: SK-MEL-5 melanoma
XF 498 CNS = tested on: XF 498 CNS
MALME-3M melanoma = tested on: MALME-3M melanoma
NCI/ADR-RES ovarian = tested on: NCI/ADR-RES ovarian
MOLT-4 leukemia = tested on: MOLT-4 leukemia
SK-MEL-2 melanoma = tested on: SK-MEL-2 melanoma
HT29 colon = tested on: HT29 colon
DLD-1 colon = tested on: DLD-1 colon
COLO 205 colon = tested on: COLO 205 colon
KM12 colon = tested on: KM12 colon
NCI-H460 lung = tested on: NCI-H460 lung
UACC-62 melanoma = tested on: UACC-62 melanoma
SF-295 CNS = tested on: SF-295 CNS
A498 renal = tested on: A498 renal
RXF 393 renal = tested on: RXF 393 renal
NCI-H522 lung = tested on: NCI-H522 lung
IGROV1 ovarian = tested on: IGROV1 ovarian
SW-620 colon = tested on: SW-620 colon
K-562 leukemia = tested on: K-562 leukemia
SF-539 CNS = tested on: SF-539 CNS
SNB-75 CNS = tested on: SNB-75 CNS
SF-268 CNS = tested on: SF-268 CNS
HCT-116 colon = tested on: HCT-116 colon
SK-MEL-28 melanoma = tested on: SK-MEL-28 melanoma
HCT-15 colon = tested on: HCT-15 colon
NCI-H23 lung = tested on: NCI-H23 lung
OVCAR-8 ovarian = tested on: OVCAR-8 ovarian
HL-60(TB) leukemia = tested on: HL-60(TB) leukemia
DMS 114 small cell lung = tested on: DMS 114 small cell lung
SNB-19 CNS = tested on: SNB-19 CNS
RPMI-8226 leukemia = tested on: RPMI-8226 leukemia
CCRF-CEM leukemia = tested on: CCRF-CEM leukemia
LOX IMVI melanoma = tested on: LOX IMVI melanoma
NCI-H226 lung = tested on: NCI-H226 lung
OVCAR-5 ovarian = tested on: OVCAR-5 ovarian
HOP-62 NSCLC = tested on: HOP-62 NSCLC
P388 leukemia = tested on: P388 leukemia
EKVX NSCLC = tested on: EKVX NSCLC
M19-MEL melanoma = tested on: M19-MEL melanoma
P388/ADR leukemia = tested on: P388/ADR leukemia
DMS 273 small cell lung = tested on: DMS 273 small cell lung
SN12K1 renal = tested on: SN12K1 renal

COc1c(O)cc2c(c1OC)-c1ccc(OC)c(=O)cc1[C@@H](NC(C)=O)CC2
300 µM and 104 µM and > 375 µM: TGI (UACC-257 melanoma)
0.165 µM and 0.0375 µM: TGI (XF 498 CNS)
1.83 µM and 1.32 µM and 1.14 µM: TGI (A498 renal)
300 µM and 325 µM: TGI (DLD-1 colon) | TGI (SNB-75 CNS)
300 µM and 325 µM and > 375 µM: TGI (A549 NSCLC) | TGI (MCF7 breast) | TGI (SNB-78 CNS) | TGI (UACC-62 melanoma) | TGI (IGROV1 ovarian) | TGI (SW-620 colon) | TGI (K-562 leukemia) | TGI (SF-268 CNS) | TGI (OVCAR-8 ovarian) | TGI (OVCAR-5 ovarian) | TGI (M19-MEL melanoma)
64.2 µM and 47.7 µM and > 375 µM: TGI (NCI/ADR-RES ovarian)
0.131 µM: TGI (SF-295 CNS)
0.1 µM and 0.0632 µM and 0.0375 µM: TGI (SN12K1 renal)
300 µM and 325 µM and 216 µM: TGI (NCI-H23 lung)
0.101 µM and 0.0375 µM: TGI (DMS 273 small cell lung)
0.274 µM and 0.0375 µM: TGI (RPMI-8226 leukemia)
0.133 µM and 0.0457 µM: TGI (NCI-H522 lung)
137 µM and 325 µM: TGI (SK-OV-3 ovarian)
45.4 µM and 60.3 µM: TGI (P388/ADR leukemia)
0.372 µM and 0.518 µM and 0.289 µM: TGI (COLO 205 colon)
1.17 µM: TGI (NCI-H226 lung)
59 µM: TGI (NCI-H460 lung)
0.0946 µM and 0.0375 µM: TGI (OVCAR-3 ovarian)
300 µM and 40.1 µM and 52.3 µM: TGI (HCC-2998 colon)
114 µM and 88.1 µM and > 375 µM: TGI (SK-MEL-5 melanoma)
inactive: GI50 (NCI/ADR-RES ovarian) | GI50 (SNB-75 CNS) | GI50 (OVCAR-5 ovarian) | GI50 (P388/ADR leukemia)
325 µM and > 375 µM: TGI (MALME-3M melanoma) | TGI (KM12 colon) | TGI (SK-MEL-28 melanoma) | TGI (CCRF-CEM leukemia) | TGI (HOP-62 NSCLC) | TGI (EKVX NSCLC)
0.306 µM and 0.264 µM and 0.0375 µM: TGI (SF-539 CNS)
active: GI50 (CAKI-1 renal) 0.112 µM and 0.0815 µM | GI50 (MCF7 breast) 0.0375 µM | GI50 (SNB-78 CNS) 0.0375 µM | GI50 (HCC-2998 colon) 0.147 µM and 0.0973 µM and 0.0375 µM | GI50 (U251 CNS) 0.0375 µM | GI50 (SK-OV-3 ovarian) 0.104 µM and 0.302 µM | GI50 (HOP-92 NSCLC) 0.0375 µM | GI50 (OVCAR-3 ovarian) 0.0375 µM | GI50 (SK-MEL-5 melanoma) 0.0375 µM | GI50 (MOLT-4 leukemia) 0.225 µM and 0.0325 µM and 0.0375 µM | GI50 (SK-MEL-2 melanoma) 0.0588 µM and 0.0325 µM and 0.0375 µM | GI50 (HT29 colon) 0.141 µM and 0.0808 µM and 0.0375 µM | GI50 (DLD-1 colon) 0.0969 µM and 0.158 µM | GI50 (COLO 205 colon) 0.0375 µM | GI50 (KM12 colon) 0.0375 µM | GI50 (UACC-62 melanoma) 0.0566 µM and 0.106 µM and 0.0375 µM | GI50 (A498 renal) 0.162 µM and 0.122 µM and 0.0375 µM | GI50 (RXF 393 renal) 0.108 µM and 0.0375 µM | GI50 (NCI-H522 lung) 0.0342 µM and 0.0375 µM | GI50 (IGROV1 ovarian) 0.125 µM and 0.211 µM and 0.0375 µM | GI50 (SW-620 colon) 0.0375 µM | GI50 (K-562 leukemia) 0.0375 µM | GI50 (SF-539 CNS) 0.0372 µM and 0.0598 µM and 0.0375 µM | GI50 (SF-268 CNS) 0.0433 µM and 0.0885 µM and 0.0375 µM | GI50 (HCT-116 colon) 0.0375 µM | GI50 (SK-MEL-28 melanoma) 0.0375 µM | GI50 (HCT-15 colon) 0.0994 µM | GI50 (NCI-H23 lung) 0.202 µM and 0.0927 µM and 0.0375 µM | GI50 (OVCAR-8 ovarian) 0.0375 µM | GI50 (HL-60(TB) leukemia) 0.0375 µM | GI50 (DMS 114 small cell lung) 0.0375 µM | GI50 (SNB-19 CNS) 0.0375 µM | GI50 (RPMI-8226 leukemia) 0.0375 µM | GI50 (CCRF-CEM leukemia) 0.0375 µM | GI50 (LOX IMVI melanoma) 0.03 µM and 0.269 µM and 0.0802 µM | GI50 (HOP-62 NSCLC) 0.0375 µM | GI50 (P388 leukemia) 0.0375 µM | GI50 (EKVX NSCLC) 0.0375 µM | GI50 (M19-MEL melanoma) 0.203 µM and 0.0325 µM and 0.0375 µM | GI50 (DMS 273 small cell lung) 0.0375 µM | GI50 (SN12K1 renal) 0.0375 µM

— PubChem BioAssay (NCI)
